# According to article PMC4336329 (PLoS ONE, 2015):
# Among all 310,000 compounds or so, about 14,000 (4.5%) showed an effect of 50% or more. Effects have a minus sign here. This is one part of the list.
# Biological target: human ether-à-go-go-related gene (hERG) potassium channel (human, UniProt Q12809)
# Experiment: primary screen, population patch clamp on CHO cells stably expressing hERG
# 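Also: peak tail current of the secondary pulse compared with the same well before compound.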
# Chain of human ether-à-go-go-related gene (hERG) potassium channel (Q12809 whole entry, looked up): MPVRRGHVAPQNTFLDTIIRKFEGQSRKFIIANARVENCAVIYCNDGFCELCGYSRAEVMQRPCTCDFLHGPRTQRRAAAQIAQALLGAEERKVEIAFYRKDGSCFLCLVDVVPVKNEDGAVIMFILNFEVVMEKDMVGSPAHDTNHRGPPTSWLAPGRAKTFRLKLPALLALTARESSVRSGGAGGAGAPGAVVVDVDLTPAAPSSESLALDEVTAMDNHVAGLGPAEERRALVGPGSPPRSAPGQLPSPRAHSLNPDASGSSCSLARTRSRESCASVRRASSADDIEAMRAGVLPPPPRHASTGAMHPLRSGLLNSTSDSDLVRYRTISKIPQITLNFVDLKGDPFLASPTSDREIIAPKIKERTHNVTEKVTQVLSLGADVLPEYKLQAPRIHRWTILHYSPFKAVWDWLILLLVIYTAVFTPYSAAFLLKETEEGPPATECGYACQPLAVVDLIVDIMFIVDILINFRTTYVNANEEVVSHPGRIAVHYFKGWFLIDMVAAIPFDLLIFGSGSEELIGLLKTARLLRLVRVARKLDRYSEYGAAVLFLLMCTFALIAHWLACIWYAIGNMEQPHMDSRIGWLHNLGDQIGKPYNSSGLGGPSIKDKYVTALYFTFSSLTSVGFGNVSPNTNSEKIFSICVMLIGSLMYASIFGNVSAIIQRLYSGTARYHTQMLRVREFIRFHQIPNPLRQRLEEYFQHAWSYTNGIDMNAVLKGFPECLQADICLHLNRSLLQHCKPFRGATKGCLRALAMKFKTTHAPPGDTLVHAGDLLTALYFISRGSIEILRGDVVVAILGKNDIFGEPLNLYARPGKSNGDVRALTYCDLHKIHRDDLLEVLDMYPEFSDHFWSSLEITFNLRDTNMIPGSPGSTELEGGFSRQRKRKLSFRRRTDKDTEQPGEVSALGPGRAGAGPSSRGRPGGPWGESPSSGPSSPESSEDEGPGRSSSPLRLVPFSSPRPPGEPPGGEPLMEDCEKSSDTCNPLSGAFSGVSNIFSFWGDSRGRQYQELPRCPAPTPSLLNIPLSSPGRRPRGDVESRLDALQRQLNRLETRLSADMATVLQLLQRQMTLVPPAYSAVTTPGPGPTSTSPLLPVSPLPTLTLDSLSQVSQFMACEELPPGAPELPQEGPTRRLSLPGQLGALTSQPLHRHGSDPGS
row,Structure (SMILES),"hERG current change (%, negative = inhibition) at 10uM"
1,CCOC(=O)[C@@H]1[C@H]2COc3ccc(Br)cc3[C@@H]2N2C(=O)N(c3ccc(C)cc3)C(=O)[C@]12C,5.6%
2,Cc1ccc(/C=N\NC(=O)CCc2n[nH]c(=O)[nH]c2=O)o1,11.4%
3,CC[C@]1(c2ccccc2OC)C(=O)N(C(=O)OC)N1C(=O)OC,19.1%
4,c1cncc(-c2nc3cc4ccccc4cc3[nH]2)c1,4.21%
5,COCCCn1c(=O)c2sccc2n(Cc2ccccc2)c1=O,8.42%
6,COc1ccc(C(=O)CSc2nnc(Cn3cnc4ccccc43)o2)cc1,-4.26%
7,CCSc1cc(N2CCCC2)nc(-c2ccccc2Cl)n1,-6.87%
8,Cc1c(OCc2ccc(C(=O)O)o2)ccc2c3c(c(=O)oc12)CCC3,11.8%
9,Cc1c(NC(=O)c2c(F)c(F)c(F)c(F)c2F)c(=O)n(-c2ccccc2)n1C,10.6%
10,Cc1noc(C)c1S(=O)(=O)Nc1ccc(C(=O)N2CCN(c3ccc(Cl)cc3)CC2)cc1,3.1%
11,O=S(=O)(Nc1ccc(N=Nc2ccc(O)c3ccccc23)cc1)c1ccccc1,13%
12,Cc1ccc(S(=O)(=O)N(CC(=O)N/N=C/c2ccc(F)cc2)c2cccc3cccnc23)cc1,8.97%
13,Cc1ccc(-c2[nH]c(-c3ccccc3)nc2SCC(=O)NCC2CCCO2)cc1 (stereo not drawn),-9.26%
14,COc1ccc(CCN2CC(C(=O)NCCc3ccc(C)cc3)CC2=O)cc1OC (stereo not drawn),6.69%
15,Cc1nnc(SCCCn2c(N3CCCCC3)nc3c2c(=O)[nH]c(=O)n3C)s1,-12.3%
16,Cn1cc(Cl)c(C(=O)N/N=C/c2ccc3c4c(cccc24)CC3)n1,17.1%
17,Cc1ccc2nc(C)/c(=N\O)c(C)nc2c1,0.558%
18,O=c1ccc2ccccc2n1Cc1cccc(F)c1,9.61%
19,O=C(Nc1ccccc1)Nc1nnc(/C=C/c2ccccc2Cl)s1,12.4%
20,O=C(O)C1=C[C@@H](c2ccc(Br)cc2)C[C@@H](OCCCCO)O1,10.9%
21,OC1(Cc2ccccc2)CCNCC1,19.6%
22,COc1ccc(NC(=O)CS(=O)CC(=O)Nc2ccc(-n3cnnn3)c(C)c2)cc1 (stereo not drawn),12.4%

row,Structure (SMILES),"hERG current change (%, negative = inhibition) at 10uM"
1,Cc1nc(Cl)sc1C(=O)Nc1ccc(Cl)cc1,-14.6%
2,COc1ccc(CCNC(=O)COC(=O)c2cc(S(=O)(=O)N3CCCC3)ccc2O)cc1,-11.4%
3,CCCCCc1ccc(OCCCC[n+]2ccccc2)c(CCCCC)c1.[Cl-],-66.4%
4,CCOC(=O)C1CCCN(C(=O)c2cccc(S(=O)(=O)N3CCCC3)c2)C1 (stereo not drawn),8.94%
5,CCCCC1=CC2=CC(=O)C(C)(OC(=O)CC)C(=O)C2=CN1C1CCCCC1 (stereo not drawn),-38%
6,C/C(=N\NS(=O)(=O)c1ccc([N+](=O)[O-])cc1)c1cccs1,17.4%
7,O=C(OCC(=O)N1CCN(C(=O)c2ccco2)CC1)c1ccccc1OCc1ccc(Cl)cc1,-35.3%
8,O=C(Oc1cc(=O)oc2ccccc12)c1ccccc1,1.76%
9,Cc1n(CC(O)COCc2ccccc2)c2ccccc2[n+]1C.[I-] (stereo not drawn),13.9%
10,CCC(=O)NCCc1cc2ccc(C)c(C)c2[nH]c1=O,-1.57%
11,O=C1NC2(NN1c1ccccc1)C1CC3CC(C1)CC2C3 (stereo not drawn),3.59%
12,COc1ccc(OCC(=O)N/N=c2\oc3c(OC)cccc3cc2C(N)=O)cc1,-2.87%
13,Cc1ccc(NC(=O)CSc2nnc(-c3cnccn3)n2-c2ccccc2)cc1,11.2%
14,Cl.O=C(CCN1Cc2ccccc2C1)c1ccc2c(c1)OCCO2,-8.74%
15,CSCCC(NC(=O)c1cccc([N+](=O)[O-])c1)C(=O)OCC(=O)N1CCCC1=O (stereo not drawn),2.82%
16,CN(C(=O)c1ccccc1C(=O)OCC(=O)NC(=O)NC(C)(C)C)C1CCCCC1,5.3%
17,Cc1nnc(SCC(=O)Nc2nonc2C)s1,7.25%
18,Cc1cccc(NP(=O)(Oc2ccccc2F)Oc2ccccc2F)c1C,10.3%
19,CC(C)c1ccc(-n2cccc2/C=C2/C(=N)N3C=CSC3=NC2=O)cc1,14.7%
20,CCOC(=O)c1c(-c2ccccc2)csc1NC(=O)CSc1nc(C)cc(C)n1,2.56%
21,O=c1c2ccccc2nc(SCc2ccccc2)n1CC1CCCO1 (stereo not drawn),-6.67%
22,COCCOC(=O)c1c(C)oc2ccc(NS(=O)(=O)c3ccccc3)cc12,-22.1%

row,Structure (SMILES),"hERG current change (%, negative = inhibition) at 10uM"
1,Cc1ccccc1N1CN(Cc2ccco2)CNC1=S,-42.1%
2,COc1ccc2nc(SCC(=O)NCc3ccc(F)cc3)[nH]c2c1,-9.3%
3,CCN(CCCNC(=O)CCC(=O)N1CCOc2ccccc21)Cc1ccccc1,-62.5%
4,COc1ccc([C@H]2CC(=O)C=C(c3ccc(C)c(F)c3)C2)cc1,-11.9%
5,CCc1ccc(NC(=O)CCNC(=O)N2C[C@H]3C[C@@H](C2)c2cccc(=O)n2C3)cc1,0.553%
6,Cc1cc(C(C)(C)C)cc(C)c1Cn1c2[n+](c3ccc(C(F)(F)F)cc31)CCCCC2.[Cl-],-55.4%
7,CC(C)CC(=O)NNC(=S)NCc1ccco1,16.9%
8,COc1ccc(CNC(=O)CN(CC2CCCO2)C(=O)CNS(=O)(=O)c2ccccc2)cc1 (stereo not drawn),-9.24%
9,CSc1n[nH]c2nc3c(c(=O)n12)C1(CCCC1)Cc1ccccc1-3,1.38%
10,O=C(OCC(=O)N1CCCC1)c1cc2c(cc1[N+](=O)[O-])OCCO2,-6.74%
11,CC1CN(C(=O)COC(=O)c2cc(S(N)(=O)=O)c(Cl)cc2Cl)CC(C)O1 (stereo not drawn),1.12%
12,O=C(COC(=O)CC(NC(=O)c1ccccc1Cl)c1ccccc1)Nc1cccc(F)c1 (stereo not drawn),-26.6%
13,CCOc1ccc(NC(=O)N(CCC(C)C)C(C)c2ccco2)cc1 (stereo not drawn),-5.24%
14,COc1ccc(C(=O)C2CCCN(C(=O)C3=CCCC3)C2)cc1OC (stereo not drawn),-3.88%
15,COc1cc(/C=N/n2c(COc3ccccc3)n[nH]c2=S)cc(OC)c1OC(C)=O,18.6%
16,CC1(C)CC(=O)C2=C(C1)N(c1ccc(F)cc1)C(=O)C2(NC(=O)c1ccccc1F)C(F)(F)F (stereo not drawn),-6.31%
17,CCCCC(=O)Nc1cc(C)c(NC(=O)c2cccs2)cn1,4.48%
18,Cc1cccc(NCC(=O)c2c(N)n(C)c(=O)n(C)c2=O)c1C,24.5%
19,CCN(CC)S(=O)(=O)c1cccc(C(=O)NNC(=O)C2=NN(c3ccccc3)C(=O)CC2)c1,-4.47%
20,NC(=O)c1ccccc1NC(=O)CS(=O)(=O)Cc1ccccc1,6.17%
21,Cc1ccc(C2N(c3cccc(Cl)c3)C(=O)C3CCCN32)o1 (stereo not drawn),-5.93%
22,CCOC(=O)c1c(C)[nH]c(C(=O)N/N=C/c2ccc(Br)cc2)c1C,3.14%

row,Structure (SMILES),"hERG current change (%, negative = inhibition) at 10uM"
1,O=C(Cc1ccccc1Cl)Nc1cccnc1,8.13%
2,O=C1CC(N2CCN(c3ccc(O)cc3)CC2)C(=O)N1Cc1cccs1 (stereo not drawn),-7.15%
3,CC(C)Cc1cc(C(=O)N2CCCC(CO)(Cc3ccc(F)cc3F)C2)n[nH]1 (stereo not drawn),-7.82%
4,O=C(CCC(=O)Nc1ccccc1Cl)NNC(=O)COc1ccc([N+](=O)[O-])cc1,-17.5%
5,CCCn1c(SCC(=O)NCc2ccco2)nnc1C(C)C,11.8%
6,Cc1ccc(NC(=O)COc2ccc(/C=N\NC(=O)c3cccnc3)cc2)cc1C,3.64%
7,Cl.OC(COCc1cccs1)CN1CCCCCC1 (stereo not drawn),-21.9%
8,CCN(CC)C(=S)NC(=O)C12CC3CC(CC(C3)C1)C2,12.7%
9,CCOC(=O)C1CCN(C(=O)CCS(=O)(=O)Cc2ccccc2)CC1,9.65%
10,C=CCNC(=O)CN(Cc1ccccc1)S(=O)(=O)c1ccc(C)cc1,-10.7%
11,COC(=O)c1ccc(CSc2ncnc3c2sc2nc(N4CCOCC4)c4c(c23)CCCC4)o1,5.71%
12,CN(C(=O)CN1C(=O)c2cc(Cl)c(Cl)cc2C1=O)C1CCS(=O)(=O)C1 (stereo not drawn),-32.5%
13,CC(C)N1CC=C2C(C#N)=C(N)C(C#N)(C#N)[C@H](c3ccoc3)[C@H]2C1,-17.3%
14,CCC1=Nc2ccccc2-c2nnc(SC)nc2O1,-32.8%
15,Cc1ccc(CNS(=O)(=O)c2cc3c4c(c2)CCN4C(=O)CC3)cc1,-29.4%
16,CC(=O)N1c2ccc(S(=O)(=O)CCC(=O)O)cc2CC1C (stereo not drawn),18.1%
17,Cc1cc(C)c(-c2c(O)c3ccccc3n(C)c2=O)c(C)c1,6.92%
18,O=C(N/N=C\c1ccncc1)c1ccc(Cl)s1,-3.18%
19,COc1cccc(CNC(=O)COC(=O)c2ccc(C(=O)c3ccccc3)cc2)c1,-7.13%
20,CC(=O)NC1=NN(C(C)=O)C(C)(c2cccs2)S1 (stereo not drawn),10.3%
21,Cc1cccc(CN2CCC(n3nccc3NC(=O)c3ccccc3C)CC2)n1,-19.9%
